In all, about 420,000 compounds went through this assay and about 64,000 (15%) were called active. Inconclusive results, whose numbers are uncertain, are shown with a selection of clear calls. Calls follow the shape of the dose curve; as a rule, active = well fitted inhibition curve with a large enough effect; inconclusive = small, poorly fitted or top-dose-only effect; inactive = flat fitted curve, though single readings scatter. No potency is given beside an inconclusive call; the fits are too rough.
Test: qHTS for Inhibitors of human tyrosyl-DNA phosphodiesterase 1 (TDP1): qHTS in cells in absence of CPT; also: nearly all actives have a fitted effect of over 55% in size
Conditions: DT40 Tdp1-/- hTDP1 cells, no CPT, ATP luminescence, 48 h; activity change, negative = growth inhibition: at 46.2 µM (top of the series) unless noted
How it was run: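 Cells were dispensed at 400 per well, compounds added by pin tool, plates incubated ≥48 hr at 37 °C, then CellTiter-Glo added for 30 min at room temperature before luminescence reading. Line: DT40 Tdp1-/- complemented with hTDP1; camptothecin omitted.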
For CCN(CC)S(=O)(=O)c1ccc2c(c1)nc(SCC(=O)N(C)C1CCS(=O)(=O)C1)n2CC (stereo not given), the Potency was “inactive”.
In the case of O=S(=O)(c1cccc(-c2cn3ccccc3n2)c1)N1CCCCC1, the Potency was “inactive”.
In the case of COc1cc(NC(=O)c2oc3c(c2C)-c2nn(Cc4cccc(Cl)c4)cc2CC3)cc(OC)c1, the Potency was inconclusive [inhibitor, single point].
With N[C@H]1CCN(O)C1=O the Potency was inconclusive [inhibitor, single point].
For Cc1ccc(Nc2nc(N)c([N+](=O)[O-])c(NCc3ccccc3)n2)cc1, the Potency was inconclusive [inhibitor, partial curve, poor fit].
With CCN(CC)C(=O)c1ccc(Nc2nnc(C)c3ccccc23)cc1 the Potency was inconclusive [inhibitor, single point].
For COc1cccc(CSc2nnc(-c3ccncc3)n2C)c1, the Potency was “inactive”.
With CSc1nnc(C)c(=O)n1COC(=O)COc1ccccc1C the Potency was inconclusive [inhibitor, single point].
In the case of COc1ccc2nc3cccc(OC)c3nc2c1, the Potency was inconclusive [inhibitor, single point].
For C/C(=N/NC(=O)CSc1nc2ccccc2s1)c1ccncc1, the Potency was inconclusive [inhibitor, single point].
With CCCCC(=O)N(C)c1c(CC)nc2c(OCC3CCCCC3)cccn12 the Potency was active: 20.6 µM.
In the case of CCn1cc(S(=O)(=O)c2ccccc2)c(=O)c2cc(F)c(N3CCN(c4ccccc4)CC3)cc21, the Potency was inconclusive [inhibitor, single point].
For COc1cc(/C=C2/SC(=O)NC2=O)ccc1OCc1ccccc1, the Potency was inconclusive [inhibitor, single point].
For O=C(CSc1nc2ncccc2[nH]1)Nc1ccc2c(c1)OCCO2, the activity change, negative = growth inhibition was inconclusive: -34.3% [inhibitor].
For COc1ccc(CNC(=O)C2CCN(S(=O)(=O)N3CCC4(CC3)OCCO4)CC2)c(OC)c1, the Potency was “inactive”.
With Cc1cc(C(=O)COC(=O)c2ccc(F)cc2)c(C)n1C the Potency was “inactive”.
With Cc1csc(N2CCN(c3cc4c(cc3Cl)nc(-c3ccncc3)n4CCCN3CCCC3)CC2)n1 the Potency was inconclusive [inhibitor, single point].
With Cc1cc(C(=O)OCC(=O)N(C)c2ccccc2)c(C)o1 the Potency was “inactive”.
In the case of Cc1cc(Cl)c2oc(C(=O)N3CCC(O)(c4ccccc4)CC3)c(C)c2c1, the Potency was inconclusive [inhibitor, single point].
In the case of COC(C[C@H]1O[C@H]1[C@@H](O)[C@H](C)OCc1ccccc1)OC, the Potency was “inactive”.

From PubChem BioAssay AID686978 (National Center for Advancing Translational Sciences (NCATS), 2013)
% is scaled to controls: 0 for no effect and ±100 for the full control effect; potency is read from the fitted curve at half-maximal effect; tags tell the direction and shape of the fitted curve.
